Test results reported in patent US9833497B2, “Human originated EGF domain proteins and use of the same” (CHENGDU SOURCEBIO LIMITED-LIABILITY COMPANY, priority 2013, dated 2017).

How the values were obtained:
Type in all cases: cell-based
Proteus vulgaris = assay: MIC against Gram-negative bacteria: Proteus vulgaris; conditions: P. vulgaris; 10 h cultivation at 37° C.
Description: (§1) 1. Gram-negative bacteria, such as E. coli BL21, Pseudomonas aeruginosa, Klebsiella pneumonia, Enterobacter cloacae, Aeromonas hydrophila, Citrobacter diversus, Moraxella catarrhalis, Proteus mirabilis, Proteus vulgaris, Serratia marcescens, etc were streaked on solid LB medium and cultured respectively. Then, typical clones were picked, inoculated into common liquid LB medium respectively, and cultured at 37° C. with shaking at 185 rpm until the McFarland specific turbidity was 0.5. The bacterial culture of each of Gram-negative bacteria was centrifuged at 4000×g for 3 min, the supernatant was discarded, and the thalli were resuspended with fresh LB medium.
(§2) 2. The above-mentioned bacterial suspensions were diluted and inoculated into 96-well plates with the final concentration of the bacterial suspension being 5×10^5 CFU/mL per well.
(§3) 3. Each of the purified human-originated EGF domain proteins (PRT1 to PRT1498 in Table 1) was added to each of the above wells and subjected to two-fold serial dilution in concentration. Three parallel wells were set up for each concentration in the gradient.
(§4) 4. The above-mentioned 96-well plates were placed and cultured at 37° C. in shaking incubator shaking at 175 rpm. […] The minimal inhibitory concentration MIC is defined as the lowest concentration of the recombinant protein at which there is no growth of the bacteria.

Moraxella catarrhalis = assay: MIC against Gram-negative bacteria: Moraxella catarrhalis; conditions: M. catarrhalis; 10 h cultivation at 37° C.
Description: as §1, §2, §3, §4

Enterobacter cloacae = assay: MIC against Gram-negative bacteria: Enterobacter cloacae; conditions: E. cloacae; 10 h cultivation at 37° C.
Description: as §1, §2, §3, §4

Pseudomonas aeruginosa = assay: MIC against Gram-negative bacteria: Pseudomonas aeruginosa; conditions: P. aeruginosa; 10 h cultivation at 37° C.
Description: as §1, §2, §3, §4

Klebsiella pneumonia = assay: MIC against Gram-negative bacteria: Klebsiella pneumonia; conditions: K. pneumonia; 10 h cultivation at 37° C.
Description: as §1, §2, §3, §4

Serratia marcescens = assay: MIC against Gram-negative bacteria: Serratia marcescens; conditions: S. marcescens; 10 h cultivation at 37° C.
Description: as §1, §2, §3, §4

E. coli DH5α = assay: Antibacterial activity: MIC and growth curve against E. coli DH5α in 96-well plate; conditions: minimal inhibitory concentration against E. coli DH5α, 5×10^5 CFU/mL, 37° C., judged after 8 h
Description: 1. E. coli DH5α was exemplified. E. coli DH5α was streaked and cultured on LB solid medium. Then, a typical clone was picked and inoculated into common LB liquid medium, cultured at 37° C. with shaking at 185 rpm until the logarithmic growth phase was reached (OD600 of about 0.5). The bacterial culture was centrifuged at 4000×g for 3 min, the supernatant was discarded, and the thalli were resuspended with fresh LB medium.
2. The above-mentioned bacterial suspension was diluted and inoculated into a 96-well plate with the total volume of 100 μL per well and a bacterial count of 5×10^5 CFU/mL.
3. The recombinant protein hF VII-EGF1 was added to the above-mentioned wells with the final protein concentration in the well of the highest protein concentration being 50 μg/mL. Basing on this final concentration, a two-fold serial dilution was performed till a protein concentration gradient consisting of 50, 25, and 12.5 μg/mL was set up. Three parallel wells were set up for each concentration in the gradient.
as §4, with “plate was” for “plates were”, “rpm. Samples were taken every 30 min, the absorbance values were determined at 600 nm wavelength under a ultra violet spectrophotometer, and an inhibition curve was plotted.” for “rpm.”
According to the experimental procedures in Example 14, the minimal inhibitory concentrations (MIC, μg/mL) of the other human-originated EGF domain proteins (PRT2 to PRT1498 in Table 1) for E. coli DH5α were determined.

Citrobacter diversus = assay: MIC against Gram-negative bacteria: Citrobacter diversus; conditions: C. diversus; 10 h cultivation at 37° C.
Description: as §1, §2, §3, §4

Proteus mirabilis = assay: MIC against Gram-negative bacteria: Proteus mirabilis; conditions: P. mirabilis; 10 h cultivation at 37° C.
Description: as §1, §2, §3, §4

E. coli BL21 = assay: MIC against Gram-negative bacteria: E. coli BL21; conditions: E. coli BL21; 10 h cultivation at 37° C.
Description: as §1, §2, §3, §4

Aeromonas hydrophila = assay: MIC against Gram-negative bacteria: Aeromonas hydrophila; conditions: A. hydrophila; 10 h cultivation at 37° C.
Description: as §1, §2, §3, §4

Row | Substance | MIC (Proteus vulgaris) | MIC (Moraxella catarrhalis) | MIC (Enterobacter cloacae) | MIC (Pseudomonas aeruginosa) | MIC (Klebsiella pneumonia) | MIC (Serratia marcescens) | MIC (E. coli DH5α) | MIC (Citrobacter diversus) | MIC (Proteus mirabilis) | MIC (E. coli BL21) | MIC (Aeromonas hydrophila)
1 | PRT959 (DVNECLSGPCRNQATCLDRIGQFTCICMAGFTGTYCE; listed as Homo sapiens) | 25 µg/mL | 50 µg/mL | 25 µg/mL | 25 µg/mL | 12.5 µg/mL | 50 µg/mL | 25 µg/mL | 12.5 µg/mL | 12.5 µg/mL | 50 µg/mL | 50 µg/mL
2 | PRT960 (DIDECQSSPCVNGGVCKDRVNGFSCTCPSGFSGSTCQ; listed as Homo sapiens) | 25 µg/mL | 12.5 µg/mL | 25 µg/mL | 25 µg/mL | 12.5 µg/mL | 12.5 µg/mL | 12.5 µg/mL | 12.5 µg/mL | 12.5 µg/mL | 50 µg/mL | 50 µg/mL
3 | PRT970 (DVDECAGPAPCGPHGICTNLAGSFSCTCHGGYTGPSCD; listed as Homo sapiens) | 12.5 µg/mL | 50 µg/mL | 50 µg/mL | 12.5 µg/mL | 25 µg/mL | 25 µg/mL | 50 µg/mL | 25 µg/mL | 25 µg/mL | 25 µg/mL | 12.5 µg/mL
4 | PRT980 (NEDDCGPGPPLDSGPRCLHNGTCVDLVGGFRCTCPPGYTGLRCE; listed as Homo sapiens) | 12.5 µg/mL | 12.5 µg/mL | 12.5 µg/mL | 12.5 µg/mL | 50 µg/mL | 50 µg/mL | 12.5 µg/mL | 25 µg/mL | 50 µg/mL | 50 µg/mL | 50 µg/mL
5 | PRT993 (DLDECLMAQQGPSPCEHGGSCLNTPGSFNCLCPPGYTGSRCE; listed as Homo sapiens) | 50 µg/mL | 50 µg/mL | 12.5 µg/mL | 12.5 µg/mL | 50 µg/mL | 12.5 µg/mL | 12.5 µg/mL | 12.5 µg/mL | 12.5 µg/mL | 50 µg/mL | 50 µg/mL
6 | PRT1010 (EIDPCHSQPCFHGGTCEATAGSPLGFICHCPKGFEGPTCS; listed as Homo sapiens) | 25 µg/mL | 25 µg/mL | 50 µg/mL | 50 µg/mL | 12.5 µg/mL | 50 µg/mL | 50 µg/mL | 50 µg/mL | 12.5 µg/mL | 12.5 µg/mL | 12.5 µg/mL
